In all, about 150,000 compounds went through this assay and about 540 (0.36%) showed an effect of 50% or more. The list shows a part of the results.

The assay relates to Plasmodium falciparum. Nature of the assay: Primary screen in NF54 nanoGlo assay, in single point, at 2uM, 72h; a lower Z score goes with more inhibition. In kind it is functional, Erythrocyte. The conditions noted are these: timepoint 72 hour.
In the case of `C[C@](O)(CN1CCC(Oc2cncc(Cl)c2)CC1)C(F)(F)F`, the “% Inhibition” value is given as -4% and the Z score is reported as 0.58.
The corresponding values for `O=C1COc2ccc(S(=O)(=O)Nc3ccc4c(c3)CCC4)cc2N1` are 2% and -0.23.
For the molecule `CCn1ncnc1[C@H](C)NC(=O)Cc1cc(F)ccc1C`, the “% Inhibition” value amounted to 5% and the Z score was -0.57.
The corresponding values for `Cc1ccc(-n2ncc3c(=O)n(CC(=O)N4CCC(C)CC4)cnc32)c(C)c1` are -5% and 0.75.
For `CCn1nccc1C(=O)N1CC[C@H](Nc2ncnc3c2CCC3)C1` the same measures were -2% and 0.34.
The corresponding values for `COc1ccc(-n2c(C)cc(C(=O)N3CCC[C@H](c4nnc5ccccn45)C3)c2C)cc1` are -4% and 0.5.
With `NCc1nc(C(=O)Nc2ccc(N3CCCC3)c3ncccc23)co1`, the “% Inhibition” value is 6% and the Z score is -0.9.
For `O=C(Nc1ccccc1)OC1CCCC(NC(=O)c2ccc(Cl)s2)C1` (stereo unspecified) the same measures were -7% and 0.77.
Consider `O=C(c1ccc2c3c(cccc13)CC2)N1CCc2ccccc2C1`, for which the “% Inhibition” value is reported as -4% and the Z score came to 0.79.
As for `CN(CCO)C(=O)c1cccc(-c2ccc(-c3ccc4c(n3)NCCC4)cc2)c1`, the “% Inhibition” value was found to be 3% and the Z score is recorded as -0.56.
As for `CC[C@H](C)NC(=O)c1c(O)nc2c(C)cccn2c1=O`, the “% Inhibition” value is listed as -2% and the Z score came out at 0.36.
On to `Cc1cccnc1-c1cccc(-c2ccn(Cc3cccnc3)n2)c1`, for which the “% Inhibition” value is listed as -3% and the Z score came to 0.5.
Consider `CN(Cc1nc2c(cnn2C)c(=O)[nH]1)CC1CCCCC1`, for which the “% Inhibition” value is given as -3% and the Z score stood at 0.27.
In the case of `O=C(NCc1ccccc1)c1nc(-c2nc(-c3cccnc3)no2)cs1`, the “% Inhibition” value is -15% and the Z score turned out to be 1.54.
Turning to `COc1ccc(CC(=O)N2CCN(S(=O)(=O)c3cc4c5c(c3)CCC(=O)N5CCC4)CC2)cc1`, the “% Inhibition” value is given as -4% and the Z score worked out at 0.65.
For the molecule `CC(C)c1csc(C(=O)NC[C@H]2CCCN(S(C)(=O)=O)C2)n1`, the “% Inhibition” value is reported as -7% and the Z score is listed as 1.04.
Take `CC[C@H]1CN(C(=O)NCC2(c3ccccc3)CC2)CCO1`: the “% Inhibition” value is listed as 1% and the Z score was -0.08.
With `Cc1ccc(O[S@](=O)Nc2cccc3nccnc23)cc1`, the “% Inhibition” value is on record as -20% and the Z score was 2.63.
As to `CCCc1cnc(NCc2cscn2)s1`, the “% Inhibition” value is listed as -13% and the Z score is reported as 2.56.
Turning to `C[C@H]1CNCCN1S(=O)(=O)c1ccc(OCC(F)(F)F)nc1`, the “% Inhibition” value is recorded as -15% and the Z score is on record as 2.05.
The corresponding values for `Cc1ccc(CN[C@H]2CC(C)(C)Cc3c2cnn3-c2cccc(F)c2)o1` are -5% and 1.03.
For `CCOCCCC(=O)N1Cc2cn[nH]c2C[C@H](C)C1` the same measures were -7% and 0.86.
As to `CCN(CC)C(=O)NCc1cccc(OCC(F)F)c1`, the “% Inhibition” value is given as -14% and the Z score is 1.18.
On to `COc1ccc(C(=O)N2CCC(c3cn(Cc4ccc(C(F)(F)F)cc4)c4ccccc34)CC2)cc1OC`, for which the “% Inhibition” value is -3% and the Z score came out at 0.36.
For the molecule `CCc1c(C(=O)N[C@@H]2CC[C@@H]2COC)ccn1C`, the “% Inhibition” value is on record as -10% and the Z score stood at 1.41.
Take `Cc1noc(C)c1S(=O)(=O)N1CC2(C[C@@H](c3nnc(-c4ccccc4)o3)N(C)C2)C1`: the “% Inhibition” value is listed as -7% and the Z score stood at 0.77.
For `Cn1ccc(NC(=O)CCNc2ncccn2)n1`, the “% Inhibition” value is -12% and the Z score is 1.54.
With `CCn1c(C)cc(C(=O)Cn2cnc(C#N)n2)c1C`, the “% Inhibition” value is given as 22% and the Z score is reported as -2.58.
As to `CCc1csc(CCNC(=O)[C@H]2CCS(=O)(=O)C2)n1`, the “% Inhibition” value was -11% and the Z score amounted to 1.56.
As for `O=C1CN(Cc2c(C(=O)N3CCCCCCC3)nc3sccn23)CCN1`, the “% Inhibition” value was -4% and the Z score was found to be 0.57.
Take `O=C(NCCCN1CCCC1)c1ccc2ncnc(N3CCCC3)c2c1`: the “% Inhibition” value amounted to 8% and the Z score was -1.08.
Consider `Cc1ccccc1OCC(=O)N(Cc1nnc(-c2ccc(Cl)cc2)o1)C(C)C`, for which the “% Inhibition” value was -9% and the Z score was 1.43.
Consider `CCN1CCC[C@H]1C(=O)NCC1CCN(C(=O)[C@H]2CCCO2)CC1`, for which the “% Inhibition” value was -3% and the Z score came to 0.36.
Turning to `Cc1ccc(S(=O)(=O)NCCC2CCN(C)CC2)cc1`, the “% Inhibition” value stood at 2% and the Z score is -0.27.
`CC1OC(C)(C)OC1C1CNc2nc(N)[nH]c(=O)c2N1C(=O)c1cccnc1` (stereo unspecified): the “% Inhibition” value is listed as 8% and the Z score was -0.88.
As to `CCNC(=O)N1CC(C(=O)NCc2cccc(C)c2)CC(c2ccc(OC)c(OC)c2)C1` (stereo unspecified), the “% Inhibition” value is -14% and the Z score is recorded as 1.31.
The corresponding values for `CCOc1ccccc1CNC(=O)c1nc(-c2oc3ccc(C)cc3c2C)no1` are -19% and 2.23.
Turning to `CCC(CC)C(=O)Nc1cccc(Cl)c1Cl`, the “% Inhibition” value was -6% and the Z score worked out at 0.87.
In the case of `CCc1ccc(NC(=O)CN2C(=O)NC3(CCS(=O)(=O)CC3)C2=O)cc1`, the “% Inhibition” value is 5% and the Z score is given as -0.58.
The corresponding values for `Cn1c(=O)n(Cc2nc(-c3ccco3)no2)c2cnccc21` are -1% and 0.15.
On to `Cn1cc(S(=O)(=O)N2CCOC[C@H]2c2cccc(F)c2)c(C(F)(F)F)n1`, for which the “% Inhibition” value is listed as -20% and the Z score was 2.3.
For `O=C(Nc1[nH]c(-c2ccccc2)cc1C(=O)c1ccccc1)c1ccccc1` the same measures were -5% and 0.65.
Take `O=C(CCc1nnc(CCc2c[nH]c3ccccc23)o1)N1CCCCCCC1`: the “% Inhibition” value is reported as -20% and the Z score worked out at 2.73.

Broadly, the % Inhibition is the change of the read-out against control, counted positive when it falls.

These data come from ChEMBL document CHEMBL4888484, “Replenishing the malaria drug discovery pipeline: Screening and hit evaluation of the MMV Hit Generation Library 1 (HGL1) against asexual blood stage Plasmodium falciparum ,using a nano luciferase reporter read-out” (2022).
